Assay results taken from PubChem BioAssay (Tox21).
Where “and” joins values, the source holds several entries; their conditions need not be identical. Identical values can stand only once. The inconclusive results got no clear call from the source; some entries with a clear call stand among them for comparison. For some of these results: Where the call is inconclusive, the potency comes from a doubtful curve fit. Calls of active or inactive are those of the source. Unless noted, calls follow the shape of the dose curve; as a rule, active = well fitted curve in the direction sought with a large enough effect in the repeat runs; inconclusive = weak or mixed curves; inactive = no such curve, though single readings can be large; an effect the other way counts as inactive or inconclusive.

Experiments:
[1] = qHTS assay for small molecule agonists of the p53 signaling pathway (AID 651631; calls by dose curve; as to activation: % is scaled to controls: 0 for no effect and ±100 for the full control effect; as to all read-outs here: nearly all actives have a fitted effect of over 15% in size); details: HCT-116 p53RE-bla reporter, beta-lactamase FRET ratio, 16 h; for Potency: activation: at 73.3 µM (top of the series) unless noted
Outline: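 Stably transfected HCT-116 cells (beta-lactamase behind p53 response elements) get compounds after a 5 h settling period; 16 h later at 37 °C, FRET substrate is loaded and fluorescence read after 2 h.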

[2] = qHTS assay for small molecules that induce genotoxicity in human embryonic kidney cells expressing luciferase-tagged ATAD5 (AID 651632); details: HEK293T ATAD5-luciferase induction, 16 h; series mostly up to 83.3 µM; also: nearly all actives have a fitted effect of over 15% in size; as to activation: % is scaled to controls: 0 for no effect and ±100 for the full control effect
Outline: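 ATAD5-luc HEK293T, 2,000 cells/well; cpd or DMSO pin-transferred; 16 hr, 37C/5% CO2; Amplite 30 min RT; luminescence.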

[3] = qHTS assay to identify small molecule antagonists of the androgen receptor (AR) signaling pathway - cell viability counter screen (AID 743033; also: nearly all actives have a fitted effect of over 45% in size); details: AR-bla HEK293 viability, CellTiter-Glo luminescence, 16 h; activity change, negative = cytotoxicity: at 58.5 µM (top of the series)
[4] = qHTS assay for small molecule agonists of the p53 signaling pathway - cell viability (AID 651633; calls by dose curve; also: nearly all actives have a fitted effect of over 30% in size); details: p53RE-bla HCT-116 viability, ATP luminescence, 16 h; series mostly up to 83.3 µM
Outline: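 p53RE-bla cells, seeded at 4,000 per well and rested 5 h at 37 C/5% CO2, received compounds in DMSO for 16 h at 37 C. CellTiter-Glo was then added, and luminescence was read after 30 min at room temperature to gauge cytotoxicity.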

[5] = qHTS assay for small molecule disruptors of the mitochondrial membrane potential - cell viability (AID 720634; calls by dose curve; also: nearly all actives have a fitted effect of over 20% in size); details: HepG2 viability, ATP luminescence (CellTiter-Glo), 1 h; series mostly up to 83.2 µM
Outline: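 Cells: HepG2, 2,000/well, attached overnight. Compound 1 hr, 37 C/5% CO2. +m-MPI dye, +CellTiter-Glo 30 min RT. Readout: luminescence (ATP).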

[6] = qHTS assay for small molecule disruptors of the mitochondrial membrane potential (AID 720635); details: HepG2 mitochondrial membrane potential, Mito-MPS dye ratio; ratio activity, negative = MMP loss: at 83.2 µM (top of the series) unless noted
Outline: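 HepG2 cells (2,000/well) attached overnight at 37C, then took compound for 1 hr at 37C, 5% CO2. Mito-MPS dye was added for 30 min; fluorescence was read at 490/535 nm (monomers) and 540/590 nm (aggregates).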

[7] = qHTS assay to test for compound auto fluorescence at 460 nm (blue) in HEK293 cell free culture (AID 720681); details: cell-free medium, autofluorescence 405/460 nm (blue); series mostly up to 91.3 µM
Outline: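 Test compounds were pinned into cell-free culture medium (DMEM with 10% FBS) and fluorescence was read directly at Ex/Em 405/460 nm. Signals were expressed as fluorescence equivalents of triamterene, with DMSO vehicle as control.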

[8] = target: Glucocorticoid receptor (Homo sapiens) (UniProt P04150); assay: qHTS assay to identify small molecule agonists of the glucocorticoid receptor (GR) signaling pathway (AID 720691; active = well fitted activation curve with a large enough effect in the signal ratio in the repeat runs, not every such curve was filed as active; inconclusive = weak or mixed curves, or effect the other way; inactive = no such curve, though single readings can be large or run the other way; the % refers to the signal ratio); details: GR-bla HeLa, beta-lactamase reporter ratio, 18 h; activation: at 62.4 µM (top of the series) unless noted
UniProt P04150, sequence (P04150 whole entry, looked up): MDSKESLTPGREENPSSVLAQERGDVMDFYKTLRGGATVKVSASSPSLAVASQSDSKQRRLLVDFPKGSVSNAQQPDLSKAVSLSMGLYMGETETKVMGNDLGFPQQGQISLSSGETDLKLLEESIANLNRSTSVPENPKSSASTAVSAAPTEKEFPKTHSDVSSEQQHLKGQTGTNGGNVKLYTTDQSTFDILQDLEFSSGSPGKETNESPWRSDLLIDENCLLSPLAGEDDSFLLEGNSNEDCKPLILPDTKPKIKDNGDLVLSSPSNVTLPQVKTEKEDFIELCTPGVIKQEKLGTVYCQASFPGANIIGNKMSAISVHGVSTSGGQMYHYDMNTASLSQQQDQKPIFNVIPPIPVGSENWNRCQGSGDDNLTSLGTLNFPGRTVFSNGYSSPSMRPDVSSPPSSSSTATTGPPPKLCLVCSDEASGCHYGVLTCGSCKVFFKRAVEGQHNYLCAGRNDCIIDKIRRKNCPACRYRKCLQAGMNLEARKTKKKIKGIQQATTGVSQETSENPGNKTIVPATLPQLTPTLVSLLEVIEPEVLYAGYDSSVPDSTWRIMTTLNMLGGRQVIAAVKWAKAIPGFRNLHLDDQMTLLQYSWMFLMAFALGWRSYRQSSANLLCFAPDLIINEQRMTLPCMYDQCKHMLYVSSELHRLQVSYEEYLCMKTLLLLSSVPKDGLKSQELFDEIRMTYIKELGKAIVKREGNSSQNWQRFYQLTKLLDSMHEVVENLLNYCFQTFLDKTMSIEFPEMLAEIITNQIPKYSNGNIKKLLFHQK
Outline: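 Fluorescence intensity from LiveBLAzer B/G FRET substrate (2 h, room temperature) reports beta-lactamase expression driven by the glucocorticoid response element in GR-bla HeLa cells after 18 h compound exposure at 37 C.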

[9] = target: Glucocorticoid receptor (Homo sapiens) (UniProt P04150); assay: qHTS assay to identify small molecule antagonists of the glucocorticoid receptor (GR) signaling pathway (AID 720692; active = well fitted inhibition curve with a large enough effect in the signal ratio in the repeat runs, not every such curve was filed as active; inconclusive = weak or mixed curves, or effect the other way; inactive = no such curve, though single readings can be large or run the other way; the % refers to the signal ratio); details: GR-bla HeLa, beta-lactamase FRET ratio, dexamethasone-stimulated, 18 h; activity change, negative = inhibition: at 58.5 µM (top of the series) unless noted
Outline: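 HeLa GR-bla cells; cmpd + dex 5 nM final, 18 h 37 C; LiveBLAzer B/G FRET substrate 2 h RT; fluorescence intensity read. Antagonist mode, qHTS.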

[10] = qHTS assay to identify small molecule antagonists of the glucocorticoid receptor (GR) signaling pathway - cell viability counter screen (AID 720693); details: GR-bla HeLa viability, CellTiter-Glo luminescence, 18 h, with 5 nM dexamethasone present; viability change, negative = cytotoxic: at 58.5 µM (top of the series) unless noted; also: nearly all actives have a fitted effect of over 55% in size
[11] = qHTS assay for identifying genotoxic compounds that show differential cytotoxicity against isogenic chicken DT40 cell lines with known DNA damage response pathways - wild type cell line (AID 743012); details: DT40 wild type chicken cells viability, CellTiter-Glo, 40 h; activity change, negative = cytotoxicity: at 68.4 µM (top of the series) unless noted; also: nearly all actives have a fitted effect of over 60% in size
Outline: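 Wild type DT40, 300 cells/well, ~0.5 h settle at 37 C/5% CO2; compounds in DMSO added by pintool; 40 h at 37 C/5% CO2; CellTiter-Glo, 30 min RT; luminescence.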

[12] = qHTS assay for identifying genotoxic compounds that show differential cytotoxicity against isogenic chicken DT40 cell lines with known DNA damage response pathways - Rev3 mutant cell line (AID 743014); details: chicken DT40 Rev3-/- viability, CellTiter-Glo, 40 h; activity, negative = cytotoxicity: at 68.4 µM (top of the series); also: nearly all actives have a fitted effect of over 55% in size; as to activity, negative = cytotoxicity: % is scaled to controls: 0 for no effect and ±100 for the full control effect
Potency is read from the fitted curve at half-maximal effect; tags tell the direction and shape of the fitted curve or compound fluorescence and quenching.

O=C(NC(=O)c1c(F)cccc1F)Nc1ccc(Oc2ccc(C(F)(F)F)cc2Cl)cc1F
Potency [1]: inconclusive: 61.1 µM [falling, single point] | Potency [2]: inactive | Potency [3]: inconclusive: 4.36 µM [cytotoxic, full curve]

N#CSCSC#N
Potency [1]: active: 5.57 µM and active: 10.8 µM | Potency [2]: active: 19.8 µM and active: 30.3 µM | Potency [4]: active: 62.5 µM and active: 60.5 µM | Potency [5]: inconclusive: 70.1 µM [cytotoxic, single point] and inconclusive: 67.9 µM [cytotoxic, single point] | Potency [6]: active: 62.5 µM and active: 48.1 µM | Potency [7]: inconclusive: 1.26 µM [rising, partial curve, poor fit] | Potency [8]: inconclusive: 56.2 µM [cytotoxic, single point] and inconclusive: 30.6 µM [cytotoxic, partial curve] | Potency [9]: inconclusive: 22.4 µM [cytotoxic, full curve] and inconclusive: 19.3 µM [cytotoxic] | Potency [10]: active: 22.4 µM and active: 21.7 µM | Potency [11]: active: 5.57 µM and active: 1.21 µM | Potency [12]: active: 1.98 µM and active: 1.91 µM

Brc1ccc(Oc2cc(Br)c(Br)cc2Br)c(Br)c1
activation ([1]; at 73.3 µM (top of the series)): inconclusive: 7.82% | activation ([1]; at 95.1 µM (top of the series)): inconclusive: 6.22% | Potency [6]: active: 4.86 µM and active: 8.7 µM | Potency [12]: inactive

O=S1(=O)OCC2C(CO1)C1(Cl)C(Cl)=C(Cl)C2(Cl)C1(Cl)Cl (stereo not given)
Potency [1]: inconclusive: 27.3 µM [rising, single point] | Potency [2]: inactive | Potency [5]: inconclusive: 24.3 µM [cytotoxic, partial curve, poor fit] | Potency [6]: active: 13.7 µM | Potency [9]: active: 17.4 µM | Potency [10]: inconclusive: 54.9 µM [cytotoxic, single point] | Potency [3]: inconclusive: 38.9 µM [cytotoxic, partial curve]
